Laboratory results as given in PubChem BioAssay AID463173 (ICCB-Longwood Screening Facility, Harvard Medical School, 2010).
In all, about 52,000 compounds went through this assay and about 1,700 (3.3%) were called active. No stated cut-off is given here; in the data, active means survival mostly below about 52% (no sharp cut-off); inactive means mostly above about 56%. The list shows a part of the results.

system: Wild type; test: growth inhibition of S. aureus wild type versus tarO mutant, primary screen, teichoic acid synthesis inhibitors, RN4220, OD600 (AID 463173); conditions: S. aureus RN4220 wild type/DeltatarO growth, OD600, 18 h, hits give low values, screened at 18.75 µg/mL (by protocol)

SMILES	survival
COc1cc(C(=O)NCCSc2c(-c3ccccc3)[nH]c3ccccc23)cc(OC)c1OC	inactive: 63%
CC(C)(C)c1ccc(OCC(=O)Nc2c(C(=O)c3ccc(F)cc3)oc3ccccc23)cc1	inactive: 79%
CCOC(=O)c1ccccc1NC(=O)CSc1ncc2c(n1)-c1ccccc1N(CC)S2(=O)=O	inactive: 88%
COc1ccc2c(c1)N(C)/C(=C1/SC(=S)N(C)C1=O)S2	inactive: 122%
Cc1ccc(NC(=O)Cn2c(=O)nc(-c3ccccc3F)c3cc(Cl)ccc32)c(Br)c1	inactive: 94%
CCC(C)n1c(=N)c(S(=O)(=O)c2ccccc2)cc2c(=O)n3ccccc3nc21 (stereo not drawn)	inactive: 73%
Cc1nn(C)c2c1c(-c1ccccc1)cc(=O)n2CC(=O)NC(C)(C)C	inactive: 126%
COc1cc2nc(SCc3ccc(F)cc3)n3nc(CCn4c(C)nc5ccccc54)nc3c2cc1OC	inactive: 87%
CCOc1ccccc1NC(=O)N1CCN(Cc2cc(=O)n3nc(-c4ccc(C)cc4)sc3n2)CC1	inactive: 73%
CCOc1ccc(S(=O)(=O)N(CC(=O)NCCSCc2ccccc2)c2ccccc2)cc1	inactive: 115%
Clc1ccc(NCCC2=CCCCC2)nn1	inactive: 127%
COc1cc(Cl)c(C)cc1NC(=O)NC1COc2ccccc2C1 (stereo not drawn)	inactive: 68%
CCc1ccc(-c2ccc3nnc(SCC(=O)Nc4cccc(C(C)=O)c4)n3n2)cc1	inactive: 71%
CCn1cc(CNC(=O)CCCSc2nc(-c3ccco3)cc(C(F)(F)F)n2)cn1	inactive: 110%
COc1ccc(NC(=O)c2c(C)oc3ccc(O)c(CN4CCCC(C)C4)c23)cc1 (stereo not drawn)	inactive: 92%
CN(C1CCCCC1)S(=O)(=O)c1ccc(S(=O)(=O)N(Cc2cccs2)CC2CCCO2)cc1 (stereo not drawn)	inactive: 110%
COc1ccc(NC(=O)c2oc3ccccc3c2NC(=O)c2cc(OC)c(OC)c(OC)c2)cc1	inactive: 104%
COc1ccc(CCNC(=O)CN2C(=O)COc3ccccc32)cc1OC	inactive: 131%
COc1cccc(CNC(=O)c2ccc(CS(=O)c3ccccc3)o2)c1 (stereo not drawn)	inactive: 109%
COc1ccc(C2=C(N3CCN(c4cc(Cl)ccc4C)CC3)c3ccccc3C2=O)cc1	inactive: 85%
COc1ccc(CCNC(=O)Cn2c(-c3cccs3)cc3cc(F)ccc32)cc1OC	inactive: 86%
CCOC(=O)N1CCN(C(=O)c2cnn(-c3cccc(F)c3)c2-n2cccc2)CC1	inactive: 81%

SMILES	survival
CCc1ccccc1NC(=O)C(CCSC)NS(=O)(=O)c1ccc2c(c1)oc(=O)n2C (stereo not drawn)	inactive: 92%
Cc1ccccc1-c1nn2c(=O)cc(CN3CCN(C(=O)c4ccccc4Br)CC3)nc2s1	inactive: 136%
N#Cc1c(-c2ccccc2)cc(-c2ccccc2)nc1SCC(=O)Nc1ccc(Cl)cc1	inactive: 137%
CC(C(=O)Nc1cccc(N)c1)n1nnc2ccccc21 (stereo not drawn)	inactive: 107%
Cc1cccc(Oc2nc3c(c(=O)n(C)c(=O)n3C)n2C)c1C	inactive: 90%
CC1CCN(S(=O)(=O)c2ccc3nc(N4CCN(c5ccccc5)CC4)ccc3c2)CC1	inactive: 77%
Oc1c(C(c2ccc(Cl)cc2)N2CCOCC2)sc2nc(-c3ccco3)nn12 (stereo not drawn)	inactive: 118%
Fc1cccc(CSc2nc(NCCc3ccccc3)c3ccccc3n2)c1	active: -3%
COc1ccccc1OCC(=O)Nc1cc(-c2ccc(C)cc2)no1	inactive: 85%
COc1cccc([C@H]2Nc3ccc(S(=O)(=O)Nc4cc(C)ccc4C)cc3[C@H]3C=CC[C@H]32)c1	inactive: 72%
Cc1cccc(N(CC(=O)N2CCCC2)S(C)(=O)=O)c1	inactive: 105%
CC(=O)c1cc(-c2ccc(F)cc2)n(CC(=O)NCc2ccc(C)cc2)c1C	inactive: 73%
CC1(C)C2CCC(C2)C1(C)NC(=O)CNCc1ccco1 (stereo not drawn)	inactive: 103%
Cc1cc(C)c(OCC(=O)Nc2cccc(-c3nc4ncccc4o3)c2)c(Br)c1	active: 4%
COc1cc(NS(=O)(=O)c2cccs2)cc(OC)c1	inactive: 72%
COc1cccc(-c2nc(CS(=O)(=O)CC(=O)NCCCc3ccccc3)c(C)o2)c1	inactive: 105%
Cc1cc(C)c2cc(C3C(C#N)=C(N)OC4=C3C(=O)CC(C)(C)C4)c(=O)[nH]c2c1 (stereo not drawn)	inactive: 114%
Cc1ccc(S(=O)(=O)N2CCCc3cc(NC(=O)c4ccc(C(C)(C)C)cc4)ccc32)cc1	inactive: 121%
CC(C)c1cc(=O)n2[nH]cnc2n1	inactive: 104%
CC(C)N1CCNCC1	inactive: 112%
Cc1ccc(CSc2ncccc2C(=O)O)cc1	inactive: 68%
Cc1nc(-c2ccc(F)cc2)sc1CCNC(=O)C(=O)Nc1ccc2c(c1)OCO2	inactive: 74%

SMILES	survival
CCCn1c2ccccc2c2cnn(CC(=O)NCCc3cc(OC)ccc3OC)c(=O)c21	inactive: 69%
CCOC(=O)c1cccc(NC(=O)NCc2ccc3c(c2)CCN3C(=O)CC)c1	inactive: 76%
CCN(CC)c1ccc(NC(=O)c2sc3nc(-c4ccccc4)cn3c2C)cc1	inactive: 113%
COc1ccc(N2CCN(C(=O)c3nn(C)c4c3CSc3ccccc3-4)CC2)cc1	inactive: 84%
CCC(=O)Nc1ccccc1-c1nc2ccccc2n(CC(=O)c2ccc(Br)cc2)c1=O	inactive: 61%
Cc1ccc(Cl)cc1NC(=O)Cn1cc(S(=O)(=O)Cc2ccccc2Cl)c2ccccc21	inactive: 80%
CCc1ccc(C(=O)c2cn(CC(=O)Nc3ccc(OC)c(Cl)c3)c3nc(C)ccc3c2=O)cc1	inactive: 119%
CCCN(C(=O)NCc1noc2ccc(C)cc12)c1ccc(Cl)c(Cl)c1	inactive: 64%
CC1=C(C(=O)Nc2cccc(C(F)(F)F)c2)C(c2ccccn2)n2ncnc2N1 (stereo not drawn)	inactive: 81%
O=C(Cn1c(SCCOc2ccccc2Cl)nc2ccccc21)N1CCCCC1	inactive: 61%
Cc1cc(C)cc(OCC(=O)NCC2(N3CCOCC3)CCCCC2)c1	inactive: 95%
CCCc1cc(=O)[nH]c(SCc2nc(-c3ccc(OC)cc3)no2)n1	inactive: 101%
COCCNC(=O)c1c[nH]c2ccccc2c1=O	inactive: 104%
Cc1ccc(C)c(NC(=O)Cn2c(=O)n(Cc3ccco3)c(=O)c3ccc(C(=O)NC4CCCC4)cc32)c1	inactive: 84%
COc1ccc(CC(=O)NCCc2csc(-c3cccc(F)c3)n2)cc1OC	inactive: 71%
N#Cc1ccccc1Cn1c(=O)n(-c2ccc(F)c(Cl)c2)c(=O)c2sccc21	inactive: 118%
CCOC(=O)c1ccccc1NC(=O)c1sc2ncn(CC)c(=O)c2c1C	inactive: 82%
Cc1ccc(S(=O)(=O)Nc2cc3c(C(=O)OCc4ccccc4)c(C)oc3c3ccccc23)cc1	inactive: 81%
O=C(C1CCN(c2ncnc3c2nc2n3CCCCC2)CC1)N1CCN(c2ccccc2)CC1	inactive: 71%
FC(F)(F)c1ccc(C2=Nc3ccccc3NC(c3cccs3)=N2)cc1	inactive: 111%
COc1ccc(F)cc1NC(=O)C1CCN(c2nc(-c3ccc(OC)c(OC)c3)no2)CC1	inactive: 86%
COc1cccc(C(=O)NC(c2ccc(Cl)cc2)c2cc(Cl)c3cccnc3c2O)c1 (stereo not drawn)	inactive: 71%

SMILES	survival
Cc1ccc(-n2nc(C)c3c(C)cc(=O)n(CC(=O)NCc4ccc(OC(C)C)cc4)c32)cc1	inactive: 120%
O=C(COc1ccc(F)cc1)Nc1cccc(OCc2cc(=O)n3ccccc3n2)c1	inactive: 73%
COc1ccc(Nc2ncc(C(=O)Nc3cc(C)ccc3OC)c3ccccc23)cc1	inactive: 89%
Cc1nc(NC(=O)CSc2nc3cccnc3n2C2CCCCC2)sc1C	inactive: 104%
Cn1c(C(=O)NCc2ccc(Cl)cc2)cc2c(=O)n(C)c3ccccc3c21	inactive: 120%
Cc1ccc(Cl)cc1NC(=O)Cn1c(=O)oc2cc(S(=O)(=O)N3CCCCCC3)ccc21	inactive: 76%
Cc1ccc2c(c1)c1c(c(=O)n(-c3ccccc3C)c(=O)n1Cc1ccccc1F)n2C	inactive: 102%
COc1ccc(NC(=O)CCc2c(C)nc3c(-c4ccccc4)c(C)nn3c2C)cc1Cl	inactive: 76%
Fc1ccc(-n2ncc3c(Nc4ccc(Oc5ccccc5)cc4)ncnc32)cc1	inactive: 63%
Cc1cccc2c1-c1sc(C(=O)NCCCN3CCN(c4cccc(Cl)c4)CC3)cc1CO2	inactive: 105%
Cc1ccc(OCC(=O)Nc2c(Cl)ccc3nsnc23)cc1C	inactive: 56%
COc1ccc(-c2noc(C(C)NC(=O)c3ccco3)n2)cc1 (stereo not drawn)	inactive: 107%
Cc1ccc(NC(=O)c2ccc(=O)n(CC(=O)Nc3cc(C)cc(C)c3)n2)cc1	inactive: 74%
COc1cc(C(c2c(C)[nH][nH]c2=O)c2c(C)[nH][nH]c2=O)ccc1OC(=O)c1ccccc1F	inactive: 75%
Cc1ccc(NC(=O)C(C)Sc2nnc(C3CCCCC3)n2C)cc1 (stereo not drawn)	inactive: 108%
CC(=O)Nc1cccc(-c2nnc(SCC(=O)c3cc([N+](=O)[O-])ccc3Br)o2)c1	inactive: 70%
O=C(O)/C=C/C(=O)N1CCC(C(=O)c2ccc(F)cc2)CC1	inactive: 95%
CC(=O)c1cccc(Nc2c3c(nc4nc(-c5cccs5)nn24)CCCC3)c1	inactive: 76%
Cc1ccc(C(=O)Oc2ccc(/C=N/NC(N)=O)cc2)cc1	inactive: 112%
S=c1[nH]nc(Cc2ccccc2)n1Cc1ccco1	inactive: 112%
CCCN1CCN(CCCNC(=O)c2cnn(-c3ccc(C)cc3)c2-n2cccc2)CC1	inactive: 121%
CC(=O)Nc1ccc(NC(=O)CSc2nnc3c4cc(Br)ccc4n(C)c3n2)cc1	inactive: 79%
